# Values joined by “and” are separate entries in the source; they are usually repeats but may differ in a detail not shown here. Identical values can stand only once. Hit rate of the full screen: of about 360,000 compounds, about 11,000 (3.1%) were called active. The inconclusive results got no clear call from the source; some entries with a clear call stand among them for comparison. The call rests on the fitted dose curve; in most records, active means well fitted inhibition curve with a large enough effect; inconclusive means small, poorly fitted or top-dose-only effect; inactive means no such curve, though single readings can be large or run the other way. Potencies beside an inconclusive call are fits to weak or partial responses and may not hold up. A structure can be active in one record and inactive in another.
# Molecular target: Schistosoma mansoni thioredoxin glutathione reductase (TGR) (UniProt Q962Y6)
# Experiment: qHTS Assay for the Inhibitors of Schistosoma Mansoni Peroxiredoxins; further: nearly all actives have a fitted effect of over 60% in size
# Conditions: purified TGR, DTNB reduction, TNB absorbance 405 nm; activity change, negative = inhibition: at 114 µM (top of the series) unless noted
# How it was run: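 First, TGR (20 nM dispensed) and NADPH were mixed with compound. Second, a 15 min room-temperature incubation followed. Third, further NADPH and then DTNB were added to start the reaction. Finally, TNB absorbance was monitored kinetically.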
# On the % scale 0 is the no-effect control and ±100 the full control effect; potency means the concentration at half of the fitted maximal effect; tags describe the fitted curve by direction and shape.
Structure (SMILES),Potency,"activity change, negative = inhibition"
Cc1ccc2nc(-c3cc(N)cc(N)c3)oc2c1,active: 50.1 µM,
CC1=C(C(N)=O)C(c2ccco2)C(C(N)=O)=C(C)N1,"inconclusive: 44.7 µM [inhibitor, partial curve]",
CCOC(=O)N1CCC(NC(=O)c2cnn3c2NC(c2ccco2)CC3C(F)(F)F)CC1 (centres undefined),"inconclusive: 25.1 µM [inhibitor, partial curve]",
CN(Cc1cnccn1)C(=O)CC1C(=O)NCCN1Cc1cccc(Oc2ccccc2)c1 (centres undefined),"inconclusive: 35.5 µM [inhibitor, partial curve]",
CCOC(=O)c1cnc2c(Cl)c(Cl)ccc2c1NCCN1CCOCC1,active: 39.8 µM,
CCOC(=O)Cc1ccc(NC(=O)n2ncc3cc(Cl)ccc32)cc1,,inactive: -5.13%
Cc1ccc(NC(=O)c2snc3ccc(Cl)cc23)cc1C,,inactive: 0.723%
Cn1c(=O)c(=O)n(C)c2cc(N3CCCC3)c(NS(=O)(=O)c3ccc(F)cc3)cc21,"inconclusive: 56.2 µM [inhibitor, partial curve]",
CCOc1cc(CN2CCN(C(=O)c3cccc4ccccc34)CC2)ccc1OC,,inactive: -13.7%
O=C(CSc1nnc(Cc2cccs2)n1Cc1ccco1)Nc1ccc(Cl)cc1Cl,"inconclusive: 44.7 µM [inhibitor, partial curve]",
O=C(COC(=O)c1cc([N+](=O)[O-])ccc1Cl)NC1CCCC1,"inconclusive: 39.8 µM [inhibitor, partial curve]",
Cc1ccccc1Cc1n[nH]c(=S)n1N,,inactive: 12.7%
CCOc1ccccc1NC(=O)c1cc2cc(C)ccc2n1C,,inactive: 6.83%
Cc1ccc(C)c(C(=O)CSc2nc(C)cc(=O)[nH]2)c1,"inconclusive: 35.5 µM [inhibitor, single point]",
COc1ccc(NC(=O)COC(=O)CCCC2=NS(=O)(=O)c3ccccc3N2)cc1Cl,,inactive: -1.51%
COc1cc(CCC(=O)N2CCN(S(=O)(=O)c3ccc(C)c(C)c3)CC2)cc(OC)c1OC,,inactive: 4.43%
CC1=NOC(=O)/C1=C/c1ccc(O)cc1,"inconclusive: 3.55 µM [inhibitor, single point]",
Cc1cc(C)nc(NC(=S)Nc2ccccc2)n1,"inconclusive: 1.41 µM [inhibitor, full curve, poor fit]",
Cc1csc(NC(=O)c2cc(C)oc2C)n1,,inactive: 0%
O=C(O)c1ccccc1Sc1ncnc2sccc12,"inconclusive: 56.2 µM [inhibitor, partial curve]",
O=C(NCCc1ccco1)C(=O)NCC1CCCN1S(=O)(=O)c1ccccc1 (centres undefined),"inconclusive: 44.7 µM [inhibitor, partial curve]",
O=C(O)C1CCCN1C(=O)c1cncc(Br)c1 (centres undefined),"inconclusive: 10 µM [inhibitor, partial curve]",
CCc1nc(Nc2ccccc2)c2nnn(Cc3ccccc3)c2n1,,inactive: -1.21%
CC(C)Oc1ccc(C(=O)NCc2cccs2)cc1,,inactive: -1.9%
CSc1nc(-c2ccco2)nn1C(=O)CCc1ccccc1,"inconclusive: 28.2 µM [inhibitor, partial curve]",

Structure (SMILES),Potency,"activity change, negative = inhibition"
COc1cccc(CNC(=O)C(CC(C)C)NS(=O)(=O)c2ccc3c(c2)oc(=O)n3C)c1 (centres undefined),"inconclusive: 3.98 µM [inhibitor, single point]",
N/C(=N\OC(=O)COc1ccc2ccccc2c1)c1ccncc1,,inactive: 7.21%
CCOc1ccc(C(c2c(O)cc(C)n(CCOC)c2=O)N2CCN(c3ccccc3)CC2)cc1 (centres undefined),active: 6.31 µM,
CCC1CCCCN1CCCNC(=O)c1[nH]c2ccccc2c1Sc1ccc(Cl)cc1 (centres undefined),"inconclusive: 89.1 µM [inhibitor, single point]",
CC1CN(C(=O)N2CCC(C(=O)NCc3cccs3)CC2)c2cc(Cl)ccc2O1 (centres undefined),,inactive: -0.139%
O=C(c1ccc(Br)o1)N1CCN(c2ccc3nnc(-c4ccccc4)n3n2)CC1,"inconclusive: 56.2 µM [inhibitor, partial curve]",
CN(C)c1ccc(O)c2c1CC1CC3[C@@H](N(C)C)C(=O)C(C(N)=O)=C(O)[C@]3(O)C(=O)C1=C2O (some centres undefined),"inconclusive: 31.6 µM [inhibitor, full curve]",
COc1ccc(CCn2c(C)cc(C(=O)CSc3nnnn3C)c2C)cc1,"inconclusive: 79.4 µM [inhibitor, single point]",
Cc1cccc(NC(=O)CCS(=O)(=O)c2cccc3nsnc23)c1C,"inconclusive: 25.1 µM [inhibitor, full curve] and inconclusive: 39.8 µM [inhibitor, partial curve]",
Cc1ccc(N(CC2CO2)S(=O)(=O)c2ccc(C)cc2)cc1 (centres undefined),"inconclusive: 44.7 µM [inhibitor, partial curve]",
O=C(O)CCc1ccc(-c2ccccc2)n1CC(=O)O,active: 35.5 µM,
CCC(CC)Nc1ccc(C(CC(N)=O)NC(=O)c2ccccc2)cc1[N+](=O)[O-] (centres undefined),,inactive: 2.8%
COCCNC(=O)Nc1cc(C(=O)NCc2ccc(C(C)C)cc2)ccc1N1CCCC1,,inactive: 4.33%
Cn1c(SCC(=O)Nc2ccccc2F)nnc1-c1cccs1,,inactive: 9.84%
CC(Cl)C(=O)NNc1cccc(Cl)n1 (centres undefined),active: 12.6 µM,
COc1ccc(-c2cc(C)no2)cc1S(=O)(=O)Nc1c(C)cc(C)cc1C,"inconclusive: 15.8 µM [inhibitor, single point]",
CCC1S/C(=N/N=C/c2ccco2)N(Cc2ccccc2)C1=O (centres undefined),active: 20 µM,
COC(=O)c1cc2sc(Cl)cc2n1Cc1c(C)cc(C)cc1C,,inactive: 7.47%
Cc1nn(-c2ccccc2)c(OC(=O)c2cccs2)c1S(=O)(=O)c1ccc([N+](=O)[O-])cc1,"inconclusive: 70.8 µM [inhibitor, single point]",
CCN(CC(=O)Nc1cccc(S(=O)(=O)N(C)c2ccccc2)c1)Cc1cccs1,,inactive: -0.34%
O=c1c2ccccc2nc(/C=C\c2ccccc2[N+](=O)[O-])n1-c1ccccc1O,,inactive: 0.652%
COc1ccccc1NC(=O)C(C)Sc1nnc2ccc3ccccc3n12 (centres undefined),"inconclusive: 39.8 µM [inhibitor, single point]",
O=C(CCCN1C(=O)c2ccccc2C1=O)Nc1sc2c(c1C(=O)NCc1ccco1)CCC2,active: 39.8 µM,
CCC(CO)Oc1cc(NCc2ccccc2F)c2ncn(C(C)C)c2c1 (centres undefined),"inconclusive: 31.6 µM [inhibitor, partial curve]",
Cc1cccc(N2CCN(C(=O)C3CCCN(S(=O)(=O)c4ccc5c(c4)oc(=O)n5C)C3)CC2)c1C (centres undefined),,inactive: -7.05%

Structure (SMILES),Potency,"activity change, negative = inhibition"
CC1Cc2cc(S(=O)(=O)NCCc3ccc(Cl)cc3)ccc2N1C(=O)C1CCC1 (centres undefined),,inactive: 1.6%
Cc1ccc(CNC(=O)c2ccc3c(c2)c(C)c(C)n3Cc2ccccc2)o1,"inconclusive: 56.2 µM [inhibitor, partial curve]",
COc1ccc(CN2CCN(C3CCSCC3)CC2CCO)c(C)c1C (centres undefined),active: 35.5 µM,
N#Cc1ccccc1OCC(=O)N1N=C(c2cccs2)CC1c1ccco1 (centres undefined),"inconclusive: 44.7 µM [inhibitor, partial curve]",
O=C1c2ccccc2C(=O)C1c1ccccc1,"inconclusive: 79.4 µM [inhibitor, single point]",
Cc1cccc(NS(=O)(=O)c2cc3c(cc2C)n(C)c(=O)c(=O)n3C)c1,,inactive: -4.35%
COc1ccc(NC(=O)CN(C)C(=O)c2cc(-c3ccc(C)o3)nc3ccccc23)cc1,active: 28.2 µM,
CCn1c(CNc2ccccc2Cl)nnc1SCCN1CCCCC1,"inconclusive: 35.5 µM [inhibitor, single point]",
CNc1nc(OCC#N)nc(N2CCCCC2)n1,"inconclusive: 39.8 µM [inhibitor, full curve]",
O=C1C(=O)N(CCCN2CCOCC2)C(c2ccc(F)cc2)/C1=C(\O)c1ccc2c(c1)OCCO2 (centres undefined),"inconclusive: 1 µM [inhibitor, full curve, poor fit]",
C/C(=N\Nc1ccccc1C)c1cccnc1,active: 35.5 µM,
CN1CCN(C(CNC(=O)c2ccccc2F)c2ccc3c(c2)OCO3)CC1 (centres undefined),,inactive: -3.13%
CC(C)C[C@@H](CO)N1CCN(Cc2ccc(O)cc2)CCC1=O,"inconclusive: 28.2 µM [inhibitor, full curve]",
CCC(C)(C)n1nnnc1C(c1cccs1)N1CC=C(c2ccc(F)cc2)CC1 (centres undefined),"inconclusive: 50.1 µM [inhibitor, partial curve]",
CCN(CC)C(=O)C1CCCN(c2ncnc3c2cnn3-c2cccc(C)c2)C1 (centres undefined),"inconclusive: 7.08 µM [inhibitor, single point]",
Cc1nc2ccccn2c1/C(O)=C1\C(=O)C(=O)N(CCN(C)C)C1c1cccnc1 (centres undefined),"inconclusive: 50.1 µM [inhibitor, partial curve]",
COc1ccc2nc(NC(=O)CSc3nnc(-c4ccoc4C)n3C)sc2c1,,inactive: -9.52%
O=C(/C=C/c1cccc([N+](=O)[O-])c1)NC(=S)Nc1ccccc1C(=O)O,active: 17.8 µM,
CCOC(=O)C1(Cc2cccc(Cl)c2)CCCN(C(=O)c2cnn(CC)c2)C1 (centres undefined),,inactive: 1.74%
Oc1ccc(C=Nc2ccc3ncccc3c2)c(O)c1,"inconclusive: 20 µM [inhibitor, partial curve]",
N#CCSc1nc2c(sc(=S)n2Cc2ccco2)c(=O)n1-c1ccc(F)cc1,"inconclusive: 39.8 µM [inhibitor, partial curve]",
N#CC1(C#N)C2=C(CCCC2)NC(c2ccccc2)C1(C#N)C#N (centres undefined),"inconclusive: 6.31 µM [inhibitor, full curve, poor fit]",
CCOC(=O)N1CCC(NC(=O)CSCc2nc(-c3ccc(OC)c(OC)c3)oc2C)CC1,"inconclusive: 39.8 µM [inhibitor, full curve]",
O=S(=O)(Nc1ncccn1)c1ccc(NC(=S)NCCc2ccc(Cl)cc2)cc1,"inconclusive: 28.2 µM [inhibitor, partial curve]",
